Reference: PubChem BioAssay (Tox21)
Values joined by “and” are separate entries in the source; they are usually repeats but may differ in a detail not shown here. Equal values may be shown once. The inconclusive results got no clear call from the source; some entries with a clear call stand among them for comparison. Where the call is inconclusive, the potency comes from a doubtful curve fit. Where a structure was tested more than once in an assay, its records may differ in their call. Active and inactive are the calls of the source. Calls come from the whole dose curve; as a rule, active = well fitted curve in the direction sought with a large enough effect in the repeat runs; inconclusive = weak or mixed curves; inactive = no such curve, though single readings can be large; an effect the other way counts as inactive or inconclusive.

Experiments:
[1] = qHTS RealTime-Glo MT Cell Viability Assay in HepG2 cells - 40 hour (AID 1224870); note: nearly all actives have a fitted effect of over 50% in size
In short: (§1)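 HepG2 cells (600/well) mixed with RealTime-Glo MT reagent, settled 5 h at 37 C/5% CO2 before compound addition. Nonlytic NanoLuc luminescence from viable-cell prosubstrate reduction read repeatedly during 40 h treatment at 37 C.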

[2] = A CellTox Green Cytotoxicity Assay to monitor cytotoxicity in HEK293 cells - 40 hour (AID 1224871); note: nearly all actives have a fitted effect of over 45% in size
In short: (§2)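 Seeding of HEK293 cells together with cytotoxicity dye preceded a 5 h incubation at 37 C/5% CO2. Test compounds in DMSO were then added and fluorescence monitored across 40 h.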

[3] = qHTS RealTime-Glo MT Cell Viability Assay in HEK293 cells - 16 hour (AID 1224872); note: nearly all actives have a fitted effect of over 50% in size
In short: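 Assay medium contained NanoLuc luciferase plus cell-permeant prosubstrate, added with HEK293 cells at 600 cells/well. After 5 h at 37 C/5% CO2 compounds were added; plates stayed at 37 C for 40 h with serial luminescence reads.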

[4] = qHTS RealTime-Glo MT Cell Viability Assay in HEK293 cells - 40 hour (AID 1224874); conditions: RealTime-Glo luminescence; max response: stronger effect = lower value; note: nearly all actives have a fitted effect of over 50% in size
In short: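 Tox21 screen in HEK293 using RealTime-Glo MT chemistry, with cells and reagent co-dispensed. Luminescence proportional to viable cell number was captured at intervals during 40 h compound exposure at 37 C.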

[5] = A CellTox Green Cytotoxicity Assay to monitor cytotoxicity in HEK293 cells - 24 hour (AID 1224875); note: nearly all actives have a fitted effect of over 45% in size
In short: as §2

[6] = qHTS RealTime-Glo MT Cell Viability Assay in HepG2 cells - 32 hour (AID 1224877); note: nearly all actives have a fitted effect of over 55% in size
In short: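 qHTS, HepG2, 600 cells/well, RealTime-Glo (NanoLuc + prosubstrate) added with cells; 5 h preincubation; DMSO compound addition; 37 C; luminescence at 0/8/16/24/32/40 h.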

[7] = qHTS RealTime-Glo MT Cell Viability Assay in HepG2 cells - 8 hour (AID 1224873); note: nearly all actives have a fitted effect of over 55% in size
In short: as §1

[8] = A CellTox Green Cytotoxicity Assay to monitor cytotoxicity in HepG2 cells - 40 hour (AID 1224879); note: nearly all actives have a fitted effect of over 40% in size
In short: (§3)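 Nonlytic assay: viable cells exclude the dye, so fluorescence scales with cell death. HepG2 at 600 cells/well, compounds added after 5 h, signal read across 40 h.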

[9] = A CellTox Green Cytotoxicity Assay to monitor cytotoxicity in HepG2 cells - 16 hour (AID 1224876); note: nearly all actives have a fitted effect of over 45% in size
In short: as §3

[10] = A CellTox Green Cytotoxicity Assay to monitor cytotoxicity in HepG2 cells - 24 hour (AID 1224878); note: nearly all actives have a fitted effect of over 45% in size
In short: as §3
Potency is the fitted concentration of half-maximal effect; tags give direction and shape of the fitted curve.

C[C@H](CN1CCCC1)C(=O)c1ccc(C(F)(F)F)cc1
Potency [1]: inconclusive: 26.8 µM [falling, single point]
Potency [2]: inconclusive: 26.8 µM [activator, single point]
Potency [3]: inconclusive: 26.8 µM [cytotoxic, single point]
Potency [4]: inconclusive: 26.8 µM [cytotoxic, single point]
Potency [5]: inconclusive: 26.8 µM [activator, single point]
Potency [6]: inconclusive: 23.9 µM [cytotoxic, single point]

O=C(N/N=C/c1ccc([N+](=O)[O-])o1)c1ccc(O)cc1
Potency [1]: inconclusive: 26.8 µM [falling, single point]
Potency [2]: inconclusive: 10.7 µM [activator, single point]
Potency [3]: inconclusive: 16.9 µM [cytotoxic, single point]
Potency [7]: inconclusive: 26.8 µM [falling, single point]
Potency [4]: inconclusive: 16.9 µM [cytotoxic, partial curve, poor fit]
Potency [5]: inconclusive: 15.1 µM [activator, single point]
Potency [6]: inconclusive: 26.8 µM [cytotoxic, single point]
Potency [8]: inconclusive: 26.8 µM [activator, single point]

C[C@]12C=CC(=O)C=C1CC[C@H]1[C@@H]3C[C@@H](O)[C@](O)(C(=O)CO)[C@@]3(C)C[C@H](O)[C@@]12F
Potency [1]: inactive
Potency [2]: inactive
Potency [9]: inactive

CN1CCC(=C2c3ccccc3C=Cc3ccccc32)CC1
Potency [1]: inactive
Potency [2]: inconclusive: 26.8 µM [activator, single point]
Potency [4]: inconclusive: 23.9 µM [cytotoxic, partial curve]
Potency [9]: inconclusive: 21.3 µM [activator, single point]
Potency [10]: inconclusive: 26.8 µM [activator, single point]

c1ccc(Cc2ccccc2)cc1
Potency [1]: inactive

Cc1cc(C(C)(C)C)c(O)c(C)c1Cn1c(=O)n(Cc2c(C)cc(C(C)(C)C)c(O)c2C)c(=O)n(Cc2c(C)cc(C(C)(C)C)c(O)c2C)c1=O
Potency [1]: inconclusive: 61.7 µM [falling, single point]
Potency [2]: inactive
Potency [3]: inconclusive: 27.5 µM [cytotoxic, partial curve]
Potency [7]: inconclusive: 24.6 µM [falling, partial curve]
Potency [6]: inconclusive: 55 µM [cytotoxic, single point]
Potency [10]: inactive

CCN(CC)CCNc1ccc(CO)c2sc3ccccc3c(=O)c12
Potency [1]: active: 21.3 µM
Potency [2]: active: 23.9 µM
Potency [7]: inconclusive: 26.8 µM [falling, partial curve, poor fit]
Potency [10]: active: 16.9 µM

NNc1nc(-c2ccc([N+](=O)[O-])cc2)cs1
Potency [1]: inconclusive: 34.7 µM [falling, partial curve]
Potency [2]: inactive
Potency [3]: inconclusive: 34.7 µM [cytotoxic, partial curve]
Potency [7]: inconclusive: 27.5 µM [falling, partial curve]
Potency [6]: inconclusive: 34.7 µM [cytotoxic, partial curve]

C[C@@H](CN(C)C)CN1c2ccccc2Sc2ccccc21
Potency [1]: inconclusive: 26.8 µM [falling, single point]
Potency [2]: active: 16.9 µM
Potency [3]: inconclusive: 21.3 µM [cytotoxic, single point]
Potency [6]: inconclusive: 26.8 µM [cytotoxic, single point]
Potency [8]: active: 26.8 µM

c1cc(C(c2ccc(OCC3CO3)cc2)c2ccc(OCC3CO3)cc2)ccc1OCC1CO1 (stereo not drawn)
Potency [1]: active: 54.9 µM
Potency [2]: inconclusive: 49 µM [activator, single point]
Potency [4]: inconclusive: 61.6 µM [cytotoxic, single point]
Potency [6]: inconclusive: 49 µM [cytotoxic, partial curve]

CN(C)c1ccc(C(=C2C=CC(=[N+](C)C)C=C2)c2ccc(N(C)C)cc2)cc1
Potency [1]: active: 34.5 µM and active: 43.6 µM and active: 26.8 µM
Potency [2]: inconclusive: 19.4 µM [activator, partial curve, poor fit]
Potency [9]: inconclusive: 15.1 µM [activator, partial curve]

NC(=O)c1ccncc1
Potency [1]: inactive

Oc1c(Cl)cc(Cl)cc1Sc1cc(Cl)cc(Cl)c1O
Potency [1]: inconclusive: 43.6 µM [falling, partial curve]
Potency [2]: active: 49.1 µM and inconclusive: 55.9 µM [activator, single point] and active: 43.6 µM
Potency [3]: inconclusive: 39 µM [cytotoxic, partial curve] and inconclusive: 35.2 µM [cytotoxic, partial curve] and inconclusive: 24.5 µM [cytotoxic, full curve]
Potency [7]: inconclusive: 43.8 µM [falling, partial curve, poor fit]
Potency [4]: inconclusive: 26.8 µM [cytotoxic, single point]
Potency [5]: inconclusive: 55.9 µM [activator, single point]
Potency [6]: inconclusive: 61.8 µM [cytotoxic, partial curve, poor fit] and inconclusive: 27.5 µM [cytotoxic, partial curve]
